Results on five substances are retold here after PMC5467231.

The chains behind the UniProt entries cited, without tags or fusion partners. Where a name states a change or a piece, a line headed by the entry shows the natural chain unless it says otherwise. Residues count along the entry.
UniProt P21802: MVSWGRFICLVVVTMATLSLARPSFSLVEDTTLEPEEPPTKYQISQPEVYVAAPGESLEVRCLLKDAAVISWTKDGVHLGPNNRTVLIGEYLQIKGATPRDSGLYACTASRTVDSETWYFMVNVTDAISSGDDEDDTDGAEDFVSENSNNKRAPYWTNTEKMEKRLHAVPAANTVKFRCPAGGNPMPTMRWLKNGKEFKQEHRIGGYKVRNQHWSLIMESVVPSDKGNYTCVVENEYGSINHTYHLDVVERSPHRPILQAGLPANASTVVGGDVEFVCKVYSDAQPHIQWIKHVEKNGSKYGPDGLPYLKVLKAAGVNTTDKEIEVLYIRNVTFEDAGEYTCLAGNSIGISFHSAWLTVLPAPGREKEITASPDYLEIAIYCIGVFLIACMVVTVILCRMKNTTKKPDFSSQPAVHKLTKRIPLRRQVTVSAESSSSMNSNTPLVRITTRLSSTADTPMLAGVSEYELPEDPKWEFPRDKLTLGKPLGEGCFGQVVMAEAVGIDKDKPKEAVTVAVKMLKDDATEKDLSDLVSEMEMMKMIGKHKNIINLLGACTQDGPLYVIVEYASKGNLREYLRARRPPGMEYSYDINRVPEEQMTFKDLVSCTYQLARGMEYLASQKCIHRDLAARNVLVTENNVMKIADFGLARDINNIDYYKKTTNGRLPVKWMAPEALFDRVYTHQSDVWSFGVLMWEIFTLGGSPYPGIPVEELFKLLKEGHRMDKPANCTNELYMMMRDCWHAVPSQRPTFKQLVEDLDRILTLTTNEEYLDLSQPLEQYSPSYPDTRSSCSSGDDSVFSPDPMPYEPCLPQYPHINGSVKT
recombinant human FGFR2/Fc chimera (Sino Biological 10824-H03H): residues 22-377 of P21802
UniProt P11362: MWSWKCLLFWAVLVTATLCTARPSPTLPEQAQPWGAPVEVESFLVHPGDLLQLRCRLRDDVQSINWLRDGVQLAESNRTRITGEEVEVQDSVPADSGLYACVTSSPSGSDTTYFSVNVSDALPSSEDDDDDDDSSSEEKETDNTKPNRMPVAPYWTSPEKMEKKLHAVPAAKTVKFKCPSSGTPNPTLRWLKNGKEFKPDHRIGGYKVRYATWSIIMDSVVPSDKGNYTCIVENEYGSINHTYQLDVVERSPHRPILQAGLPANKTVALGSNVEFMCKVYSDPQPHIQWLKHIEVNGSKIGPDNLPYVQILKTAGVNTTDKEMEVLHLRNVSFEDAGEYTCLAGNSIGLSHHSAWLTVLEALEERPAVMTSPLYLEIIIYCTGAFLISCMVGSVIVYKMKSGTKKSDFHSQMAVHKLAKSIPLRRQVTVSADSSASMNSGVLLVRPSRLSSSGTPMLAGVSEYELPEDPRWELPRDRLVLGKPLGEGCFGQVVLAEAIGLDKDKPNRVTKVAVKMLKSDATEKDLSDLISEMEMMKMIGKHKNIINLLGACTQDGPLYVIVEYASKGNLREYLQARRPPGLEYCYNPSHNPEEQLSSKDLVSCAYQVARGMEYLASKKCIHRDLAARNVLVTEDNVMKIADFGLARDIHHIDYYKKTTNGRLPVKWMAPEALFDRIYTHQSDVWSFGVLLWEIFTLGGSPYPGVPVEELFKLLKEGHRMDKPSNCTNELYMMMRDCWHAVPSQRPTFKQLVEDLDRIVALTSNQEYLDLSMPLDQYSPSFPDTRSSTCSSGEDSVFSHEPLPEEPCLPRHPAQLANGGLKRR
recombinant human FGFR1/Fc chimera (Sino Biological 10616-H03H): residues 22-376 of P11362
UniProt P22607, residues 23-806: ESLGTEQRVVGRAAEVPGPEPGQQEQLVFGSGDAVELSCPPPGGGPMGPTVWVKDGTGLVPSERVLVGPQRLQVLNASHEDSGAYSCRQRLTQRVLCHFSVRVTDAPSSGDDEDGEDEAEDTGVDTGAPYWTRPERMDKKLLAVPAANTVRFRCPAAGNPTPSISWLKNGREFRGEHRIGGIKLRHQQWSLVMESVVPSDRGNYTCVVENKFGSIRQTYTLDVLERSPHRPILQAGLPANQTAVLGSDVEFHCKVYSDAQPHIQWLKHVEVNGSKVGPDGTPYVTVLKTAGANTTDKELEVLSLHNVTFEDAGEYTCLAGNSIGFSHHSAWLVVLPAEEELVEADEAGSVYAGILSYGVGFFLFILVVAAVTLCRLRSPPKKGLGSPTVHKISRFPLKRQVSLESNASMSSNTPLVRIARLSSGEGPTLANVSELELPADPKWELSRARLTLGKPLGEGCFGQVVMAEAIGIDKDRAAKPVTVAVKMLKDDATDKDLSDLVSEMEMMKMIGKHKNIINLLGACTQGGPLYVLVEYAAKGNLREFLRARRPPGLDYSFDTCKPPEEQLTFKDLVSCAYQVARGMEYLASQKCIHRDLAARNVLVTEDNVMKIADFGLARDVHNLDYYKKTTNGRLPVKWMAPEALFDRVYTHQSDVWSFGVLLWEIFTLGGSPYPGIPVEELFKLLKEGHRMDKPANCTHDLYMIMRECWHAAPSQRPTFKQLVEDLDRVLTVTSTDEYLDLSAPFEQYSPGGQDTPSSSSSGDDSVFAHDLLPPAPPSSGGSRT
UniProt P22455, residues 22-802: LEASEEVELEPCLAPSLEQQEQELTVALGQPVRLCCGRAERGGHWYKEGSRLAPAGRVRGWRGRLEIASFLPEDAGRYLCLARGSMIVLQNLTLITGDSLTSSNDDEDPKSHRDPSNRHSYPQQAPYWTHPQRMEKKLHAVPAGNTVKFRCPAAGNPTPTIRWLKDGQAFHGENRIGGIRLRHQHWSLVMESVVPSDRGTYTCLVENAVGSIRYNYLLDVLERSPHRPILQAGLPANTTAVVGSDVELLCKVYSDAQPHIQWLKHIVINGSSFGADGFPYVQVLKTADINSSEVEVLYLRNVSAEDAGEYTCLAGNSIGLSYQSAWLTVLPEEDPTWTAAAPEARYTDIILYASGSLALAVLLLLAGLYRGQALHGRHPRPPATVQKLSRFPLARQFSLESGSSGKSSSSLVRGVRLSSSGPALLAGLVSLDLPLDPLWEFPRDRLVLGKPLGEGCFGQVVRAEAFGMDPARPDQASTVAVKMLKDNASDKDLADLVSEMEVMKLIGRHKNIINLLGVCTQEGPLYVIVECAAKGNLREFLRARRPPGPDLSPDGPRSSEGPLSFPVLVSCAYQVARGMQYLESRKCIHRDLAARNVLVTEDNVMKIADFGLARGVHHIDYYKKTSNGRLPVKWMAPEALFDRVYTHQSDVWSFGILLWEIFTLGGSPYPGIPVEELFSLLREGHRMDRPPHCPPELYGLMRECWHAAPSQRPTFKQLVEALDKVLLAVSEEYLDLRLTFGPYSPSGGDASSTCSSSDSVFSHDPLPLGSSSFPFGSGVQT
UniProt P09038, residues 143-288: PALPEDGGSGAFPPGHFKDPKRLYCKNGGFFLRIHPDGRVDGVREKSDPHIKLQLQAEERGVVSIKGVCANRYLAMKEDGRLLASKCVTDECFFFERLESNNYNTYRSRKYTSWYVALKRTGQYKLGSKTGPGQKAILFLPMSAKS

The target in experiment [1] is T1, melanoma cell adhesion molecule (MCAM), endogenous in HEK293 cells (human (endogenous in HEK293)) (UniProt P43121).
T1 sequence: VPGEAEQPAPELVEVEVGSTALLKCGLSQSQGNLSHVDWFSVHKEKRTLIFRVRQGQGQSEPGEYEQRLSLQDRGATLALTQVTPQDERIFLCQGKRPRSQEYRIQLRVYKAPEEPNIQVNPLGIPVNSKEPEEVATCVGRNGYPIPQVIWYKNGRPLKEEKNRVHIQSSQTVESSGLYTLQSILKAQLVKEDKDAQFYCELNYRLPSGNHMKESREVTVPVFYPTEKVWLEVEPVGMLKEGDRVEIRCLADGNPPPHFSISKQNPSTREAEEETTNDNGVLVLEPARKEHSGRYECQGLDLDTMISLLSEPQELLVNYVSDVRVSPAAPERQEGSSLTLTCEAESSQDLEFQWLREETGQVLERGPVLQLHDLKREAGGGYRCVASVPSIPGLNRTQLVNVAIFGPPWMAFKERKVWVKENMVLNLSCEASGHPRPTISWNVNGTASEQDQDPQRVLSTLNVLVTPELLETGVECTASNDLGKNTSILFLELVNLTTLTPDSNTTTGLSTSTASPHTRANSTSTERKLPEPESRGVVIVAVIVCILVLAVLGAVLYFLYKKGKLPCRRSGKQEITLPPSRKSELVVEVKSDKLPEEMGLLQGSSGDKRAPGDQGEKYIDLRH
As to the kind of experiment: co-IP; HEK293 lysate (1% NP-40, 100 mM NaCl, pH 7.5); precipitated with anti-MCAM antibody AA1 and Protein G PLUS-Agarose at 4 °C, washed with 1 M NaCl, 1% NP-40; immunoblot (precipitating antibody of the FGFR1/FGF4 co-IP not told).

In experiment [2] the target is recombinant human FGFR2/Fc chimera (Sino Biological 10824-H03H) (human) (UniProt P21802). As to the kind of experiment: SPR; Biacore T100, CM5 chip, room temperature, 1x PBS with 0.05% Tween 20; MCAM/Fc, FGFR1/Fc, FGFR2/Fc or IgG1 Fc immobilised by amine coupling, soluble FGF2, FGF4 or FGF8 flowed over; 1:1 binding model; both purified.
The target in experiment [3] is T2, recombinant human MCAM/Fc chimera (Sino Biological 10115-H02H) (human) (UniProt P43121).
T2 sequence: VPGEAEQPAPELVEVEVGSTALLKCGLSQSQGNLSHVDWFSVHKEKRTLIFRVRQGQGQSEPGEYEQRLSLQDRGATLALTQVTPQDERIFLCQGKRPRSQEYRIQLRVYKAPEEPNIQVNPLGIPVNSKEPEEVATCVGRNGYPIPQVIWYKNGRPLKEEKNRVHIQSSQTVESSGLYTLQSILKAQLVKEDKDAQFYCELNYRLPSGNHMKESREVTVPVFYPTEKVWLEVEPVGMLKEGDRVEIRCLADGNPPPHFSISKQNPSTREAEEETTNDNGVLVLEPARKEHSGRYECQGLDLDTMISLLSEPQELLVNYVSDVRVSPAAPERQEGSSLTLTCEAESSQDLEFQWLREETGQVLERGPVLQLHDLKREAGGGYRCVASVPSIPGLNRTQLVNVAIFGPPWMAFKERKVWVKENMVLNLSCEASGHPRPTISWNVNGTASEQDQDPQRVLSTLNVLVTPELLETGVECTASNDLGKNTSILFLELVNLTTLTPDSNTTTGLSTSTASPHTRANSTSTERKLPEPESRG
Described as above.

Experiment [4] has as its target recombinant human FGFR1/Fc chimera (Sino Biological 10616-H03H) (human) (UniProt P11362). The experiment is described as above.

No constants are given. Whether binding was seen depends on the method and setting. For some of these results: In cells and extracts the contact can be indirect. Some entries that bind do so weakly or less than the wild type. For some of these results: Where a sequence is shown, tags or fusion partners need not be part of it.

As to “FGFR1, endogenous in HEK293 cells (from UniProt P11362 22-822) (receptor)”, in experiment [1], the binding entry is “no binding”.
The same measure, in the same setting: to “FGFR2, endogenous in HEK293 cells (from UniProt P21802 22-821) (receptor)” belongs “no binding”.
The same measure, in the same setting: to “FGFR3, endogenous in HEK293 cells (from UniProt P22607 23-806) (receptor)” belongs “no binding”; to “FGFR4, endogenous in HEK293 cells (from UniProt P22455 22-802) (receptor)”, “no binding”.
On to “recombinant human FGF2 (Sino Biological 10014-HNAE) (from UniProt P09038 143-288) (ligand)”, for which the binding entry in experiment [2] is listed as “binds”; in experiment [3], “no binding”; in experiment [4], “binds”.
